The values below come from patent US20220153853A1 (JIANGSU HENGRUI MEDICINE, published 2022).

This assay addresses human GLP-1R (human, UniProt P43220 24-463). Put plainly: cell-based or functional assay.

B1: ch1817-D (other)
heavy: HGEGTFTSDVSSYLEEEAAKEFVAWLVKGGGGGGGSGGGGSGGGGSEVQLVESGGDLVQPGRSMKLSCAASGFTFSNYYMAWVRQAPTKGLEWVASISTGGVNTYYRDSVKGRFTISRDNAKNNLYLQMDSLRSEETATYYCARHTTADYFYGIYFALDAWGQGTSVTVSSASTKGPSVFPLAPCSRSTSESTAALGCLVKDYFPEPVTVSWNSGALTSGVHTFPAVLQSSGLYSLSSVVTVPSSSLGTKTYTCNVDHKPSNTKVDKRV[human IgG4 Fc with S228P F234A L235A (EU numbers) left out]
light: QFTLTQPKSVSGSLRSTITIPCERSSGDIGDSYVNWYQQHLGRPPLNVIYADVQRPSEVSDRFSGSIDSSSNSASLTITNLQMDDEADYFCQSYDTNIDIIFGGGTKLTVLRTVAAPSVFIFPPSDEQLKSGTASVVCLLNNFYPREAKVQWKVDNALQSGNSQESVTEQDSKDSTYSLSSTLTLSKADYEKHKVYACEVTHQGLSSPVTKSFNRGEC
Take B1: the half-maximal effective concentration (EC50) is 0.3 nM and the Emax % came out at 106%.

B2: ch1805-D (other)
heavy: HGEGTFTSDVSSYLEEEAAKEFVAWLVKGGGGGGGSGGGGSGGGGSEVQLQQSGPELVKPGASVKIPCKTSGYTFTDYNMDWVKQSHGRSLEWIGSIDPDNGGTIYNQKFKGKATLTVDKSSSTAYMELRSLTSEDTAVYYCTRDYYGSSSWFAYWGQGTLVTVSAASTKGPSVFPLAPCSRSTSESTAALGCLVKDYFPEPVTVSWNSGALTSGVHTFPAVLQSSGLYSLSSVVTVPSSSLGTKTYTCNVDHKPSNTKVDKRV[human IgG4 Fc with S228P F234A L235A (EU numbers) left out]
light: DVVMTQSPATLSVTPGDRVSLSCRASQSISDYLHWYQQKSHESPRLLIKYASQSISGIPSRFSGSGSGSDFTLSINSVEPEDVGVYYCQNGHSFPYTFGGGTKLEIKRTVAAPSVFIFPPSDEQLKSGTASVVCLLNNFYPREAKVQWKVDNALQSGNSQESVTEQDSKDSTYSLSSTLTLSKADYEKHKVYACEVTHQGLSSPVTKSFNRGEC
In the case of B2, the response was half-maximal at 0.11 nM (EC50) and the Emax % was 108%.

B3: ch1808-D (other)
heavy: HGEGTFTSDVSSYLEEEAAKEFVAWLVKGGGGGGGSGGGGSGGGGSQVQLQQSGAELARPGASVKLSCKASGDTFTTNGISWVKQRIGQGLEWIGEIYPRSGNTYYNENFKGKATLTADKSSTTAYMELRRLTSEDSAVYFCARSITSVIGADYFDYWGQGTTLTVSSASTKGPSVFPLAPCSRSTSESTAALGCLVKDYFPEPVTVSWNSGALTSGVHTFPAVLQSSGLYSLSSVVTVPSSSLGTKTYTCNVDHKPSNTKVDKRV[human IgG4 Fc with S228P F234A L235A (EU numbers) left out]
light: DIQMTQTTSSLSASLGDRVTISCRASQDISNYLNWYQKKPDGTVKLLIYYSSTLHSGVPSRFSGSGSGTDYSLTISNLEQEDIATYFCQQGNTFPWTFGGGTKLEIKRTVAAPSVFIFPPSDEQLKSGTASVVCLLNNFYPREAKVQWKVDNALQSGNSQESVTEQDSKDSTYSLSSTLTLSKADYEKHKVYACEVTHQGLSSPVTKSFNRGEC
On to B3, for which the “EC50” value was found to be 0.14 nM and the Emax % turned out to be 107%.
